Measurements taken from PubChem BioAssay AID624418 (National Center for Advancing Translational Sciences (NCATS), 2012).
The whole screen tested about 410,000 compounds, of which about 530 (0.13%) were called active. Inconclusive results, whose numbers are uncertain, are shown with a selection of clear calls. The call rests on the fitted dose curve; in most records, active means well fitted inhibition curve with a large enough effect; inconclusive means small, poorly fitted or top-dose-only effect, or another doubt; inactive means no such curve, though single readings can be large or run the other way. Where the call is inconclusive, the potency comes from a doubtful curve fit.
On the % scale 0 is the no-effect control and ±100 the full control effect; potency means the concentration at half of the fitted maximal effect.

Experiment: qHTS of GLP-1 Receptor Inverse Agonists: Cytotox Screen
Settings: HEK293 cAMP-luciferase reporter cells, luminescence, 24 h; activity change, negative = inhibition: at 38.3 µM (top of the series) unless noted
Procedure, shortened: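 1536-well qHTS counterscreen of the MLSMR; 200 cells/uL, 12 h pre-incubation, 23 nL cpd, 24 h at 37 deg C 5% CO2, luciferase detection reagent, 12 min RT, luminescence. Inhibition = undesired.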
In the case of `COc1cc2cc(-c3ccc(OC)c(OC)c3C)nc(N)c2cc1OC`, the Potency is reported as inconclusive: 1.78 µM [inhibitor, full curve].
In the case of `Cc1ccc(-c2nnc(N3CCC(C)CC3)c3ccccc23)cc1C`, the Potency is reported as inconclusive: 28.2 µM [inhibitor, single point].
With `Cc1ccc(C(=O)O)cc1N=Nc1c(O)[nH]c(=O)[nH]c1=O` the Potency was inconclusive: 28.2 µM [inhibitor, single point].
In the case of `CN1/C(=C/C(=O)c2nc(S(C)(=O)=O)ncc2Cl)C(C)(C)c2ccccc21`, the Potency is reported as inconclusive: 10 µM [inhibitor, partial curve, poor fit].
For `N#Cc1c(/N=C/C2C(=O)NC(=S)NC2=O)sc2c1CCCC2`, the “activity change, negative = inhibition” value was inactive: -10.9%.
With `Cc1ccc(C[n+]2c(-c3ccc(C)cc3)cc(-c3ccc(C)cc3)cc2-c2ccc(C)cc2)cc1` the Potency was inconclusive: 7.08 µM [inhibitor, partial curve].
For `CCOC(=O)c1c(C)n(-c2ccc(OC)cc2)c2ccc(O)c(CN(C)C)c12`, the Potency was inconclusive: 22.4 µM [inhibitor, single point].
In the case of `CNc1ccc2oc(C[C@H]3O[C@@]4(CC[C@H]3C)O[C@H]([C@H](C)C(=O)c3ccc[nH]3)[C@H](C)C[C@H]4C)nc2c1C(=O)O`, the Potency is reported as inconclusive: 5.01 µM [inhibitor, full curve, poor fit].
For `COc1ccc(C2=NCc3nnc(C)n3-c3ccc(Cl)cc32)cc1Cl`, the Potency was inconclusive: 28.2 µM [inhibitor, single point].
With `CC(C)(C)OC(=O)NCCCCCNC(=O)c1nc[nH]c1C(=O)NCc1ccc(CNC(=O)OC(C)(C)C)cc1` the Potency was inconclusive: 11.2 µM [inhibitor, single point].
In the case of `C=C1C(=O)C23C(O)C1CCC2C12CCCC(C)(COC(C)=O)C1C(O)C3(O)OC2` (stereo not drawn), the Potency is reported as active: 2.51 µM.
For `COc1ccccc1CN(Cc1nc2ccccc2c(=O)[nH]1)S(=O)(=O)c1ccc2ccccc2c1`, the Potency was inconclusive: 10 µM [inhibitor, partial curve].
With `COc1ccc(C(C)NCCC(c2ccc(OC(C)C)cc2)c2ccccc2OC)cc1` (stereo not drawn) the Potency was inconclusive: 11.2 µM [inhibitor, single point].
With `Cc1ccc(/C=C/C(=O)c2ccc(O)cc2)cc1` the Potency was inconclusive: 11.2 µM [inhibitor, single point].
For `CCOC(=O)CN1C(=O)S/C(=C/c2ccc(O)c([N+](=O)[O-])c2)C1=O`, the Potency was inconclusive: 31.6 µM [inhibitor, single point].
In the case of `CC(C)CCNCC(O)CON=C1c2ccccc2-c2ccccc21` (stereo not drawn), the Potency is reported as inconclusive: 22.4 µM [inhibitor, single point].
With `Cc1sc(NC(=O)c2ccccc2)c(C(c2ccc(Cl)cc2)N2CCN(CCO)CC2)c1C` (stereo not drawn) the Potency was inconclusive: 22.4 µM [inhibitor, single point].
For `O=C(c1ccc(COc2ccc(Br)cc2)o1)N1N=C(C(F)F)CC1(O)C(F)F` (stereo not drawn), the Potency was inconclusive: 22.4 µM [inhibitor, single point].
With `COC(=O)[C@@H]1C[C@H]1[C@@H](NP(=O)(c1ccccc1)c1ccccc1)c1ccccc1` the “activity change, negative = inhibition” value was inactive: 2.79%.
In the case of `COc1cc(OC)c2c(-c3ccccc3)cc(=O)oc2c1C(CC(=O)N1CCCC1)c1ccc2c(c1)OCO2` (stereo not drawn), the Potency is reported as inconclusive: 28.2 µM [inhibitor, single point].
For `O=C(c1ccccc1)c1nn(-c2ccc(Cl)cc2)c(=O)cc1C(F)(F)F`, the Potency was inconclusive: 28.2 µM [inhibitor, single point].
For `CCN1CCN(c2ccc([N+](=O)[O-])cc2C(=O)c2ccc(Cl)cc2)CC1`, the Potency was inconclusive: 10 µM [inhibitor, partial curve, poor fit].
In the case of `COc1cccc(N2CC(O)=C(c3nc4ccccc4s3)C2=N)c1`, the Potency is reported as inconclusive: 0.794 µM [inhibitor, full curve, poor fit].
In the case of `O=C(N/N=C(\c1ccccc1)c1ccccn1)c1cccc([N+](=O)[O-])c1`, the Potency is reported as inconclusive: 5.62 µM [inhibitor, partial curve, poor fit].
In the case of `CCCc1cc(-c2nc(N)ncc2-c2ccc3c(c2)OCCCO3)c(O)cc1OC`, the Potency is reported as inconclusive: 28.2 µM [inhibitor, single point].
With `COc1ccccc1-c1ncn(Cc2cccc(-c3ccccc3)c2)c1CC(C)C` the Potency was inconclusive: 28.2 µM [inhibitor, single point].
With `CCOC(=O)C(=Cc1ccc(-n2ccnc2)cc1)C(=O)OCC` the Potency was inconclusive: 10 µM [inhibitor, partial curve, poor fit].
With `O=[N+]([O-])c1cc(-n2cnnn2)c(O)c([N+](=O)[O-])c1` the Potency was inconclusive: 11.2 µM [inhibitor, single point].
With `CC1=CC(=C2C(=O)NC(=S)NC2=O)C=C(C(F)(F)F)N1Cc1ccccc1` the Potency was inconclusive: 1 µM [inhibitor, full curve, poor fit].
With `CCCCCn1c(=O)c(C(=O)Nc2nc(CC(=O)OCC)cs2)c(O)c2ccccc21` the “activity change, negative = inhibition” value was inactive: 0.183%.
With `Cc1cc(C)c2cc(CN(Cc3ccco3)C(=O)NCc3ccccc3)c(=O)[nH]c2c1` the Potency was inconclusive: 28.2 µM [inhibitor, single point].
In the case of `CNC(=O)O/N=C(\N)Cc1csc2ccc(Cl)cc12`, the Potency is reported as inconclusive: 11.2 µM [inhibitor, single point].
With `Cc1ccc2c(c1)C1CN(C)CCC1N2C(=O)c1ccccc1NS(=O)(=O)c1ccc(F)cc1C` (stereo not drawn) the Potency was inconclusive: 10 µM [inhibitor, single point].
In the case of `CCc1cc2c(cc1-c1csc(C/C(N)=N/O)n1)C(C)(C)CCC2(C)C`, the Potency is reported as inconclusive: 28.2 µM [inhibitor, single point].
With `Fc1ccc(N2CCN(c3nc(CN4CCOCC4)nc4scc(-c5ccccc5)c34)CC2)cc1` the Potency was inconclusive: 28.2 µM [inhibitor, single point].
With `CC(C)c1cc(C(=O)OCC(=O)NC(=O)NCc2ccco2)c(O)c(C(C)C)c1` the Potency was inconclusive: 28.2 µM [inhibitor, single point].
In the case of `O=C(Nc1nc(-c2ccccn2)cs1)c1cc(Cl)ccc1[N+](=O)[O-]`, the Potency is reported as inconclusive: 2.51 µM [inhibitor, full curve, poor fit].
For `COc1cc([C@@H]2c3cc4c(cc3[C@@H](O[C@@H]3O[C@@H]5CO[C@@H](C)O[C@H]5[C@H](O)[C@H]3O)[C@H]3COC(=O)[C@H]23)OCO4)cc(OC)c1O`, the Potency was inconclusive: 7.94 µM [inhibitor, partial curve].
With `COc1ccc([C@H]2CC(=O)C=C(c3cc(Cl)ccc3OC)C2)cc1` the Potency was inconclusive: 5.01 µM [inhibitor, full curve, poor fit].
For `O=C1NCN(c2ccccc2)C12CCN(C(CCc1ccccc1)c1nnnn1C1CCCCC1)CC2` (stereo not drawn), the Potency was inconclusive: 12.6 µM [inhibitor, single point].
For `C[n+]1c2ccccc2nc2ccc(NCCO)cc21`, the Potency was inconclusive: 10 µM [inhibitor, partial curve, poor fit].
With `Cc1ccc(-c2nc(N3CCOCC3)s[n+]2-c2ccccc2)cc1` the “activity change, negative = inhibition” value was inactive: 12.6%.
In the case of `O=C(Nc1ccc([N+](=O)[O-])cc1)Nc1ccc(OC(F)F)c(Cl)c1`, the Potency is reported as inconclusive: 8.91 µM [inhibitor, partial curve, poor fit].
For `C/C(=C\c1ccc(N(C)C)cc1)[N+](=O)[O-]`, the Potency was inconclusive: 10 µM [inhibitor, partial curve, poor fit].
In the case of `N=c1c2c(n(Cc3ccc(Cl)c(Cl)c3)c3c1CCC3)CCCC2`, the Potency is reported as inconclusive: 10 µM [inhibitor, single point].
With `CC1CCCN(C(=O)Cn2c(=O)oc3cc(S(=O)(=O)N4CCCCC4C)ccc32)C1` (stereo not drawn) the Potency was inconclusive: 3.16 µM [inhibitor, full curve].
With `O=c1c2ccccc2nc(-c2ccccc2Cl)n1-c1cccc(O)c1` the “activity change, negative = inhibition” value was inactive: -4.69%.
In the case of `Oc1cccc(/C=N/NP(=S)(c2ccccc2)c2ccccc2)c1`, the Potency is reported as inconclusive: 20 µM [inhibitor, single point].
With `C[N+](C)(C)CCC(=O)N1C/C(=C/c2ccccc2)C(=O)/C(=C\c2ccccc2)C1` the Potency was inconclusive: 12.6 µM [inhibitor, partial curve, poor fit].
With `COC(=O)COc1cc(C)cc2oc(=O)c3c(c12)CCCC3` the Potency was inconclusive: 14.1 µM [inhibitor, single point].
In the case of `CCN(CC)c1ccc(CNCCc2ccccc2F)cc1`, the Potency is reported as inconclusive: 28.2 µM [inhibitor, single point].
With `CC1CN(c2ccc([N+](=O)[O-])c(N3CCCCC3)c2)CCN1` (stereo not drawn) the Potency was inconclusive: 31.6 µM [inhibitor, single point].
For `COc1ccc(CC(=O)N(CCN(C)C)CC2CCCN(Cc3ccccc3F)C2)cc1` (stereo not drawn), the Potency was inconclusive: 14.1 µM [inhibitor, partial curve, poor fit].
With `COc1ccc(-n2nnnc2C(c2ccccc2)N2CCC(n3c(=O)[nH]c4ccccc43)CC2)cc1` (stereo not drawn) the Potency was inconclusive: 10 µM [inhibitor, single point].
For `Cn1ncnc2c(=O)n(C)c(=O)nc1-2`, the Potency was inconclusive: 3.98 µM [inhibitor, full curve, poor fit].
With `CCOC(=O)c1c(C)n(-c2ccc(C)cc2)c2c(C(C(C)=O)C(=O)O)c(Br)c(O)c(O)c12` (stereo not drawn) the Potency was inconclusive: 14.1 µM [inhibitor, single point].
With `COc1cccc(C2SCC(=O)Nc3c2c(C)nn3-c2ccc(C)c(Cl)c2)c1OC` (stereo not drawn) the “activity change, negative = inhibition” value was inactive: -17.2%.
In the case of `O=C(NC(=S)Nc1nc(-c2ccccc2)cs1)c1cncc(Br)c1`, the Potency is reported as inconclusive: 11.2 µM [inhibitor, single point].
